Tested on: conditionally-immortalized mouse podocyte cell line
Assay: Podocyte cytotoxicity assay (Cell Titer-Blue)
Conditions: 72 hours, three experiments
Description: Podocytes are polarized epithelial cells located on the glomerular basement membrane that contribute to the integrity of the filtration barrier. For the purposes of these experiments, they function as an indicator of renal toxicity. Following 72 hours of treatment with each compound concentrations ranging from 30 μM to 3 nM, podocyte viability was assessed by measuring residual metabolic activity (FIG. 30). […] Of the 15 analogs tested, only two, TSA and apicidin, caused sufficient cytotoxicity to allow the calculation of an E50 value. […] Treatment with PTBA or each of 12 structural analogs never decreased podocyte viability below the 50% threshold, even when tested at 30 μM (FIG. 30). […]
The isolation and characterization of conditionally-immortalized mouse podocyte cell line have been previously described (Mundel, P. et al. Rearrangements of the cytoskeleton and cell contacts induce process formation during differentiation of conditionally immortalized mouse podocyte cell lines. Exp Cell Res 236, 248-258, (1997) and Schwartz, E. J. et al. Human immunodeficiency virus-1 induces loss of contact inhibition in podocytes. J Am Soc Nephrol 12, 1677-1684, (2001)). […] After incubation, cytotoxicity was analyzed using the Cell Titer-Blue Cell Viability Assay (Promega) per manufacturer's instructions. […] Fluorescence was read at 79 560Ex/590Em on a Gemini SpectramaxXS (Molecular Devices) plate reader. […]

SMILES | mean E50 (concentration where 50% of the exposed podocytes remained viable)
CC(/C=C/C(=O)NO)=C\[C@@H](C)C(=O)c1ccc(N(C)C)cc1 [TSA, trichostatin A, reference compound] | 96 nM
CCC(=O)CCCCC[C@@H]1NC(=O)[C@H]2CCCCN2C(=O)[C@H]([C@@H](C)CC)NC(=O)[C@H](Cc2cn(OC)c3ccccc23)NC1=O [apicidin, reference compound] | 152 nM
